Experimental data as given in patent US12427157B2, “Methods for treatment of diseases involving acidic or hypoxic diseased tissues” (Cybrexa 1, Inc., priority 2018, dated 2025).
For at least one compound, name, drawing or mass did not settle the structure. Residues, ends and D or L forms follow the SMILES beside them. *: point of attachment. X11 = CN(Cc1ccc(-c2[nH]c3cc(F)cc4c3c2CCNC4=O)cc1)C(=O)OCc1ccc(NC(=O)OCCS*)cc1; X6 = CNCc1ccc(-c2c3c4c(cc(F)cc4n2[C@@H](CC(C)C)NC(=O)OCCS*)C(=O)NCC3)cc1; X5 = CNCc1ccc(-c2c3c4c(cc(F)cc4n2[C@H](CC(C)C)NC(=O)OCCS*)C(=O)NCC3)cc1

Test system: PARP
Experiment: Elisa PARylation assay in (BRCA−/−) DLD-1 cells, 16 h
Assay type: cell-based, Human
Settings: pH 7.4, (BRCA−/−) DLD-1 cells, read-out: IC50 Elisa PARP Inhibition(nM) pH 7.4 (BRCA−/−) DLD-1 cells, 16 h

Structure (SMILES) | IC50 [nM]
CC[C@H](C)[C@H](NC(=O)[C@@H]1CCCN1C(=O)[C@H](CC(N)=O)NC(=O)[C@H](CCC(N)=O)NC(=O)[C@H](CCC(=O)O)NC(=O)[C@H](C)N)C(=O)N[C@@H](Cc1ccc(O)cc1)C(=O)N[C@@H](Cc1c[nH]c2ccccc12)C(=O)N[C@@H](C)C(=O)N[C@@H](CCCNC(=N)N)C(=O)N[C@@H](Cc1ccc(O)cc1)C(=O)N[C@@H](C)C(=O)N[C@@H](CC(=O)O)C(=O)N[C@@H](Cc1c[nH]c2ccccc12)C(=O)N[C@@H](CC(C)C)C(=O)N[C@@H](Cc1ccccc1)C(=O)N[C@H](C(=O)N[C@H](C(=O)N1CCC[C@H]1C(=O)N[C@@H](CC(C)C)C(=O)N[C@@H](CC(C)C)C(=O)N[C@@H](CC(C)C)C(=O)N[C@@H](CC(C)C)C(=O)N[C@@H](CC(=O)O)C(=O)N[C@@H](CC(C)C)C(=O)N[C@@H](C)C(=O)N[C@@H](CC(C)C)C(=O)N[C@@H](CC(C)C)C(=O)N[C@H](C(=O)N[C@@H](CC(=O)O)C(=O)N[C@@H](C)C(=O)N[C@@H](CC(=O)O)C(=O)N[C@@H](CCC(=O)O)C(=O)N[C@@H](CSSCCOC(=O)Nc1ccc(COC(=O)N(C)Cc2ccc(-c3[nH]c4cc(F)cc5c4c3CCNC5=O)cc2)cc1)C(=O)NCC(=O)O)C(C)C)[C@@H](C)O)[C@@H](C)O [Example 32] (H-AEQNPIYWARYADWLFTTPLLLLDLALLVDADEC(X11)G-OH; N-terminus and C-terminus assumed) | 5000
CC[C@H](C)[C@H](NC(=O)[C@@H]1CCCN1C(=O)[C@H](CC(N)=O)NC(=O)[C@H](CCC(N)=O)NC(=O)[C@H](CCC(=O)O)NC(=O)[C@H](C)N)C(=O)N[C@@H](Cc1ccc(O)cc1)C(=O)N[C@@H](Cc1c[nH]c2ccccc12)C(=O)N[C@@H](C)C(=O)N[C@@H](CCCNC(=N)N)C(=O)N[C@@H](Cc1ccc(O)cc1)C(=O)N[C@@H](C)C(=O)N[C@@H](CC(=O)O)C(=O)N[C@@H](Cc1c[nH]c2ccccc12)C(=O)N[C@@H](CC(C)C)C(=O)N[C@@H](Cc1ccccc1)C(=O)N[C@H](C(=O)N[C@H](C(=O)N1CCC[C@H]1C(=O)N[C@@H](CC(C)C)C(=O)N[C@@H](CC(C)C)C(=O)N[C@@H](CC(C)C)C(=O)N[C@@H](CC(C)C)C(=O)N[C@@H](CC(=O)O)C(=O)N[C@@H](CC(C)C)C(=O)N[C@@H](C)C(=O)N[C@@H](CC(C)C)C(=O)N[C@@H](CC(C)C)C(=O)N[C@H](C(=O)N[C@@H](CC(=O)O)C(=O)N[C@@H](C)C(=O)N[C@@H](CC(=O)O)C(=O)N[C@@H](CCC(=O)O)C(=O)N[C@@H](CSSCCOC(=O)N[C@@H](CC(C)C)n1c(-c2ccc(CNC)cc2)c2c3c(cc(F)cc31)C(=O)NCC2)C(=O)NCC(=O)O)C(C)C)[C@@H](C)O)[C@@H](C)O [Example 34] (H-AEQNPIYWARYADWLFTTPLLLLDLALLVDADEC(X5)G-OH; N-terminus and C-terminus assumed) | 2090
CC[C@H](C)[C@H](NC(=O)[C@@H]1CCCN1C(=O)[C@H](CC(N)=O)NC(=O)[C@H](CCC(N)=O)NC(=O)[C@H](CCC(=O)O)NC(=O)[C@H](C)N)C(=O)N[C@@H](Cc1ccc(O)cc1)C(=O)N[C@@H](Cc1c[nH]c2ccccc12)C(=O)N[C@@H](C)C(=O)N[C@@H](CCCNC(=N)N)C(=O)N[C@@H](Cc1ccc(O)cc1)C(=O)N[C@@H](C)C(=O)N[C@@H](CC(=O)O)C(=O)N[C@@H](Cc1c[nH]c2ccccc12)C(=O)N[C@@H](CC(C)C)C(=O)N[C@@H](Cc1ccccc1)C(=O)N[C@H](C(=O)N[C@H](C(=O)N1CCC[C@H]1C(=O)N[C@@H](CC(C)C)C(=O)N[C@@H](CC(C)C)C(=O)N[C@@H](CC(C)C)C(=O)N[C@@H](CC(C)C)C(=O)N[C@@H](CC(=O)O)C(=O)N[C@@H](CC(C)C)C(=O)N[C@@H](C)C(=O)N[C@@H](CC(C)C)C(=O)N[C@@H](CC(C)C)C(=O)N[C@H](C(=O)N[C@@H](CC(=O)O)C(=O)N[C@@H](C)C(=O)N[C@@H](CC(=O)O)C(=O)N[C@@H](CCC(=O)O)C(=O)N[C@@H](CSSCCOC(=O)N[C@H](CC(C)C)n1c(-c2ccc(CNC)cc2)c2c3c(cc(F)cc31)C(=O)NCC2)C(=O)NCC(=O)O)C(C)C)[C@@H](C)O)[C@@H](C)O [Example 35] (H-AEQNPIYWARYADWLFTTPLLLLDLALLVDADEC(X6)G-OH; N-terminus and C-terminus assumed) | 1580
CC(C)C[C@H](NC(=O)[C@H](Cc1ccc(O)cc1)NC(=O)[C@H](C)NC(=O)[C@H](CCCNC(=N)N)NC(=O)[C@H](Cc1c[nH]c2ccccc12)NC(=O)[C@@H]1CCCN1C(=O)[C@H](CC(N)=O)NC(=O)[C@H](CCC(N)=O)NC(=O)[C@H](CC(=O)O)NC(=O)[C@H](CC(=O)O)NC(=O)[C@H](C)N)C(=O)N[C@@H](CC(=O)O)C(=O)N[C@@H](CC(C)C)C(=O)N[C@@H](CC(C)C)C(=O)N[C@@H](Cc1ccccc1)C(=O)N1CCC[C@H]1C(=O)N[C@H](C(=O)N[C@@H](CC(=O)O)C(=O)N[C@H](C(=O)N[C@@H](CC(C)C)C(=O)N[C@@H](CC(C)C)C(=O)N[C@@H](CC(C)C)C(=O)N[C@@H](CC(=O)O)C(=O)N[C@@H](CC(C)C)C(=O)N[C@@H](CC(C)C)C(=O)N[C@@H](Cc1c[nH]c2ccccc12)C(=O)N[C@@H](CSS[C@H](C)COC(=O)NCN1c2cc(F)cc3c(=O)[nH]nc(c23)[C@H](c2ncnn2C)[C@H]1c1ccc(F)cc1)C(=O)NCC(=O)O)[C@@H](C)O)[C@@H](C)O [Example 40] | 522
CC(C)C[C@H](NC(=O)[C@H](Cc1ccc(O)cc1)NC(=O)[C@H](C)NC(=O)[C@H](CCCNC(=N)N)NC(=O)[C@H](Cc1c[nH]c2ccccc12)NC(=O)[C@@H]1CCCN1C(=O)[C@H](CC(N)=O)NC(=O)[C@H](CCC(N)=O)NC(=O)[C@H](CC(=O)O)NC(=O)[C@H](CC(=O)O)NC(=O)[C@H](C)N)C(=O)N[C@@H](CC(=O)O)C(=O)N[C@@H](CC(C)C)C(=O)N[C@@H](CC(C)C)C(=O)N[C@@H](Cc1ccccc1)C(=O)N1CCC[C@H]1C(=O)N[C@H](C(=O)N[C@@H](CC(=O)O)C(=O)N[C@H](C(=O)N[C@@H](CC(C)C)C(=O)N[C@@H](CC(C)C)C(=O)N[C@@H](CC(C)C)C(=O)N[C@@H](CC(=O)O)C(=O)N[C@@H](CC(C)C)C(=O)N[C@@H](CC(C)C)C(=O)N[C@@H](Cc1c[nH]c2ccccc12)C(=O)N[C@@H](CC(=O)O)C(=O)N[C@@H](C)C(=O)N[C@@H](CC(=O)O)C(=O)N[C@@H](CCC(=O)O)C(=O)N[C@@H](CSS[C@H](C)COC(=O)NCN1c2cc(F)cc3c(=O)[nH]nc(c23)[C@H](c2ncnn2C)[C@H]1c1ccc(F)cc1)C(=O)NCC(=O)O)[C@@H](C)O)[C@@H](C)O [Example 41] | 459
CC(C)C[C@H](NC(=O)[C@H](Cc1ccc(O)cc1)NC(=O)[C@H](C)NC(=O)[C@H](CCCNC(=N)N)NC(=O)[C@H](Cc1c[nH]c2ccccc12)NC(=O)[C@@H]1CCCN1C(=O)[C@H](CC(N)=O)NC(=O)[C@H](CCC(N)=O)NC(=O)[C@H](CC(=O)O)NC(=O)[C@H](CC(=O)O)NC(=O)[C@H](C)N)C(=O)N[C@@H](CC(=O)O)C(=O)N[C@@H](CC(C)C)C(=O)N[C@@H](CC(C)C)C(=O)N[C@@H](Cc1ccccc1)C(=O)N1CCC[C@H]1C(=O)N[C@H](C(=O)N[C@@H](CC(=O)O)C(=O)N[C@H](C(=O)N[C@@H](CC(C)C)C(=O)N[C@@H](CC(C)C)C(=O)N[C@@H](CC(C)C)C(=O)N[C@@H](CC(=O)O)C(=O)N[C@@H](CC(C)C)C(=O)N[C@@H](CC(C)C)C(=O)N[C@@H](Cc1c[nH]c2ccccc12)C(=O)N[C@@H](CSS[C@@H](C)COC(=O)NCN1c2cc(F)cc3c(=O)[nH]nc(c23)[C@H](c2ncnn2C)[C@H]1c1ccc(F)cc1)C(=O)NCC(=O)O)[C@@H](C)O)[C@@H](C)O [Example 42] | 540
